Experimental findings from PubChem BioAssay AID463173 (ICCB-Longwood Screening Facility, Harvard Medical School, 2010) are described below.

Screen size: about 52,000 compounds; about 1,700 (3.3%) were called active. Rule as the data show it: active = survival mostly below about 52% (no sharp cut-off); inactive = mostly above about 56%. The list shows a part of the results.

The assay has as its system Wild type. The experiment in a line: S. aureus survival, RN4220 and DeltatarO strains – OD600, teichoic acid synthesis inhibitors, primary screen (AID 463173). The settings on record: S. aureus RN4220 wild type/DeltatarO growth, OD600, 18 h, active compounds read low, screened at 18.75 µg/mL (by protocol).
In the case of `COc1cc(OC)c(NC(=O)Nc2nnc(N(C)C3CCCCC3)s2)cc1Cl`, the survival is inactive: 14%.

As to `CCOc1cccc2sc(N(Cc3cccnc3)C(=O)c3ccco3)nc12`, the survival was inactive: 85%. The value for `COc1ccc(C(c2c(C)n(C)n(-c3ccccc3)c2=O)c2c(C)n(C)n(-c3ccccc3)c2=O)cc1O` was inactive: 93%. The value for `COc1ccc(-c2cc3c(=O)n(CC(=O)Nc4ccccc4C(F)(F)F)ccn3n2)cc1OC` was inactive: 91%. Then `CCCc1nc(N)c(C#N)c(-c2ccc(F)cc2)c1CC`, with inactive: 114%. `O=C(O)CCc1ccco1`: the survival was inactive: 107%. As to `COc1ccc(Cn2nnnc2CN(Cc2cccs2)Cc2cc3ccc(OC)cc3[nH]c2=O)cc1`, the survival was inactive: 111%. Then `CC(=O)c1ccc(NC(=O)CN(C)S(=O)(=O)c2cc3c(cc2C)NC(=O)CO3)cc1`, with inactive: 82%; and `CC1CCN(CC(=O)N2CCCc3c2c(=O)oc2ccc(OCc4ccccc4)cc32)CC1`, with inactive: 86%; and `Cc1c(C(=O)Nc2ccc(Br)cc2F)oc2ccc(S(=O)(=O)N3CCCCC3)cc12`, with inactive: 68%. The value for `CC1(C(=O)Nc2cccc(C(F)(F)F)c2)Cc2ccccc2C(=O)O1` (stereo not given) was inactive: 104%; that for `O=C(CN1C(=O)C2CCCCN2c2ccc(C(=O)N3CCCC3)cc21)NCc1ccc(F)cc1` (stereo not given) was inactive: 77%. Then `Cc1nc(N2CCOCC2)c2c(C(=O)N3CCN(c4cc(Cl)ccc4C)CC3)c(C)oc2n1`, with inactive: 64%; and `COc1ccc(CNC(=O)C2CCCCN2S(=O)(=O)c2ccc(F)cc2)cc1` (stereo not given), with inactive: 87%. In the case of `CCOc1c(CC2C(=O)Nc3ccc(Br)cc32)cccc1OC` (stereo not given), the survival was inactive: 99%. The value for `CCCNC(=O)CN1C(=O)COc2ccc(S(=O)(=O)N3CCCC3)cc21` was inactive: 89%; that for `CCCC(=O)Nc1nc2ccc(S(C)(=O)=O)cc2s1` was inactive: 109%. Then `CCN1CCC(N(Cc2ccc(F)cc2)C(=O)Nc2cc(C)ccc2C)CC1`, with inactive: 71%; and `CCOc1ccccc1CNc1ncnc2onc(-c3ccc(F)cc3)c12`, with inactive: 81%. The value for `CC1CCCCN1C(=O)CSc1nc2ccccc2nc1Cc1ccccc1` (stereo not given) was inactive: 71%; that for `COc1ccc(-n2cc(C(=O)NCCc3ccc(C)cc3)c3ccccc3c2=O)cc1` was inactive: 82%; that for `NC(=O)C1CCCN(C(=O)Nc2c[nH]c3ccccc3c2=O)C1` (stereo not given) was inactive: 113%. With `COC(=O)c1ccc(C2CC(=O)Nc3c2c(C)nn3-c2nc(C)cc(C)n2)cc1` (stereo not given), the survival is inactive: 84%. Then `COc1ccc(CNC(=O)c2ccc3c(c2)N=C(C)c2c(C)ccc(C)c2S3)cc1`, with inactive: 91%; and `Cc1cc(C)cc(NC(=O)CC(C)n2nc(C)cc2C)c1` (stereo not given), with inactive: 83%. Then `O=C(Cn1ccc2cc(S(=O)(=O)N3CCCC3)ccc21)NCc1ccc(Cl)cc1`, with inactive: 72%; and `CCn1c(SC)nc2c([nH]c3ccccc32)c1=O`, with inactive: 80%. Then `COc1cc(NC(=O)Cn2c(=O)n(Cc3ccccc3)c(=O)c3oc4ccccc4c32)cc(OC)c1`, with inactive: 72%; and `CCOC(=O)c1c(S(=O)(=O)N2CCC(C(=O)Nc3ccc(C)cn3)CC2)c(C)n(C)c1C`, with inactive: 70%; and `CCOC(=O)c1cc2c(ccn2C)n1CC(=O)NC(c1ccccc1)c1ccccc1`, with inactive: 108%.

Turning to `O=C(Nc1ccc(F)cc1)C1CCN(c2nc3ccccc3nc2C(F)(F)F)CC1`, the survival was inactive: 128%. The value for `COc1ccc(-c2noc(CC(=O)N(C)c3ccccc3F)n2)cc1` was inactive: 84%.

On to `Cc1cc(-c2ccc(S(=O)(=O)Nc3ccccc3C)cc2)on1`, for which the survival was inactive: 69%.

Take `COc1ccc(NC(=O)C2=C(C)Nc3nc(SCc4ccc(C)cc4C)nn3C2c2cccc(OC)c2OC)cc1` (stereo not given): the survival is inactive: 77%. For `Cc1cccc(NC(=O)c2ccccc2)n1`, the survival was inactive: 107%. Then `O=C(O)C1C2C=CC(O2)C1C(=O)Nc1ccccc1` (stereo not given), with inactive: 99%. As for `COc1cc(-c2ccno2)ccc1S(=O)(=O)N1CCN(c2cccc(Cl)c2)CC1`, the survival was active: -3%. Then `CCOc1ccc(CNC(=O)Cn2nc(C)c3nn(-c4ccc(Cl)cc4)c(C)c3c2=O)cc1`, with inactive: 128%. Then `Cc1nc(N=C(N)N)nc2cc3c(cc12)OCO3`, with inactive: 92%; and `Cc1[nH]c(=O)[nH]c(=O)c1S(=O)(=O)Nc1cccc(Cl)c1C`, with inactive: 65%. The value for `Cc1ccc(CNC(=O)c2oc3ccc(S(=O)(=O)N4CCCC(C)C4)cc3c2C)cc1` (stereo not given) was inactive: 66%; that for `Cc1oc2ncnc(N3CCCCC3)c2c1C(=O)NCC1CCN(Cc2ccccc2F)CC1` was inactive: 76%.

In the case of `COc1ccccc1NC(=O)c1sc2nc(-c3cc4cc(Cl)ccc4oc3=O)[nH]c(=O)c2c1C`, the survival was inactive: 83%. The value for `COc1ccc(OC)c(NC(=O)Cn2nc3c(cc2=O)CCCC3)c1` was inactive: 83%; that for `COC(=O)Nc1c(-c2ccccc2)nc2ccc(C)cn12` was inactive: 105%; that for `CCc1ccc(NC(=O)CC2C(=O)N(c3cccc(C)c3)C(=O)N2Cc2cccc(OC)c2)cc1` (stereo not given) was inactive: 79%.

`COc1ccc(CCNS(=O)(=O)c2ccc3c(c2)c(=O)n(C)c(=O)n3C)cc1OC`: the survival is inactive: 80%.

Regarding `CC1(C(=O)NN)NC2(CCCCC2)Cc2ccccc21` (stereo not given), the survival was inactive: 108%. The value for `Cc1ccc(NC(=O)CCCc2nnc3n(C)c(=O)c4sccc4n23)cc1C` was inactive: 105%. The value for `CCc1nn(CC(=O)NCc2ccco2)c(=O)c2cc3cc(F)ccc3n12` was inactive: 124%; that for `Cc1ccc(NC(=O)c2nc(S(C)(=O)=O)ncc2N(Cc2cccc(F)c2)Cc2ccco2)cc1C` was inactive: 85%; that for `NS(=O)(=O)c1ccc(NC(=O)c2cc(-c3cccs3)nc3ccccc23)cc1` was inactive: 130%. Then `CCc1nnc(NC(=O)c2ccc(S(=O)(=O)N3CCc4ccccc4C3)cc2)s1`, with inactive: 107%; and `COCC(=O)N1CCN(c2ncnc3c(-c4ccc(Cl)cc4)nsc23)CC1`, with inactive: 114%; and `CCOc1ccc(N(CC)S(=O)(=O)N2CCCC(C(=O)NCCc3ccc(OC)cc3)C2)cc1` (stereo not given), with inactive: 76%. Turning to `CCN(CC)S(=O)(=O)c1ccc2oc(C(=O)NCc3ccccc3OC)c(C)c2c1`, the survival was inactive: 90%. The value for `Cc1ccc(C)c(N2CCN(C(=O)c3cc(S(=O)(=O)N4CCCCCC4)cn3C)CC2)c1` was inactive: 77%; that for `COCCCNC(=O)c1ccc(Cn2c(SCc3cccc(C)c3)nc3cccnc32)cc1` was inactive: 68%; that for `Cc1ccc(S(=O)(=O)NCC2CCC(C(=O)NCCc3ccc(Cl)cc3)CC2)cc1` (stereo not given) was inactive: 82%. The value for `Cc1cccc2sc(N(CCCN(C)C)C(=O)COc3ccccc3)nc12` was inactive: 120%; that for `CCNc1ncnc2c1oc1ccccc12` was inactive: 101%. Then `COC(=O)c1ccccc1NC(=O)Cn1c(=O)n(-c2cccc(C(F)(F)F)c2)c(=O)c2c(C)c(C)sc21`, with inactive: 82%. For the molecule `O=S(=O)(CCn1cccc1)CCn1cccc1`, the survival is inactive: 98%. Then `CCOC(=O)C1CCCN(C(=O)c2nn(-c3ccc(C)cc3)c(=O)c3c2c2ccccc2n3C)C1` (stereo not given), with inactive: 72%; and `CCCn1c(CCCNC(=O)c2ccccc2OC)nc2ccccc21`, with inactive: 133%; and `O=C(/C=C\c1ccccc1)NC1CC(=O)N(c2ccccc2)C1` (stereo not given), with inactive: 136%.

In the case of `Cc1ccc2c(c1)cc(CN(Cc1ccco1)S(=O)(=O)c1ccccc1)c1nnnn12`, the survival was inactive: 102%. With `COc1ccc(CC(NC(C)=O)C(=O)N2CCN(C(=O)Nc3ccc(C#N)cc3)CC2)cc1` (stereo not given), the survival is inactive: 105%.

For `Cc1cc(C)c2c(n1)sc1c(=O)n(-c3cc(Cl)ccc3C)nnc12`, the survival was inactive: 89%. On to `CCN(Cc1ccccc1)C(=O)c1sc2nc3n(c(=O)c2c1C)CCCC3`, for which the survival was inactive: 81%. Then `CCOc1ccc(CNS(=O)(=O)c2ccc(-c3coc(C)n3)cc2)cc1OC`, with inactive: 68%. Then `OC(COC(c1ccccc1)c1ccccc1)CN1CCCCC1` (stereo not given), with inactive: 97%; and `CCN(CC)CCCNC(=O)c1nn(-c2ccc(C)cc2)c(=O)c2c1c1ccccc1n2C`, with inactive: 62%; and `CCCCN(C)CCCNC(=O)Cn1ncc2c3ccccc3n(Cc3cc(C)ccc3C)c2c1=O`, with inactive: 96%. The value for `NNC(=O)CNC(=O)c1ccc2c(c1)OCO2` was inactive: 107%; that for `O=C(CN1CCOCC1)NC12CC3CC(CC(C3)C1)C2` was inactive: 101%. With `COc1ccccc1CNC(=O)c1cc2c(s1)-c1ccccc1OC2`, the survival was inactive: 92%.

`CCC(=O)N1c2ccc(S(=O)(=O)CCC(=O)Nc3ccc(Br)c(C)c3)cc2CC1C` (stereo not given): the survival was inactive: 87%.

As to `O=C(O)COc1nsnc1N1CCOCC1`, the survival was inactive: 102%. For `COCCNC(=O)Cn1c(=O)n(CCCCCC(=O)Nc2ccccc2)c(=O)c2sccc21`, the survival is inactive: 88%. Consider `COc1ccc(/C=C(\C#N)c2nc3ccccc3n2C)c(OC)c1`, for which the survival is inactive: 59%. The value for `O=S(=O)(c1ccccc1)c1nnn2c1nc(NCc1ccccc1)c1sccc12` was inactive: 91%; that for `CCOCCCN(Cc1ccco1)C(=O)c1cc2c(=O)[nH]c3ccc(C)cc3c2s1` was inactive: 127%; that for `CCc1ccc2c(c1)-c1ccccc1S(=O)(=O)N2CC(=O)N1CCCCC1` was inactive: 86%.

In the case of `COc1ccc(-c2cn3c(n2)sc2cc(C(=O)NCCc4ccc(OC)cc4OC)ccc23)cc1`, the survival is inactive: 76%.

Take `Cc1ccc(Cl)cc1N1CCN(C(=O)CN2C(=O)CSc3c2c(C)nn3-c2ccccc2)CC1`: the survival is inactive: 70%. In the case of `COc1cccc(NC(=O)c2cnc(SCC(=O)N3CCOCC3)n(C)c2=O)c1`, the survival is inactive: 128%. The value for `O=C(NCc1cccs1)c1ccc(Cn2c(SCc3ccc(F)cc3)nc3cccnc32)cc1` was inactive: 91%; that for `COc1cc(Cl)c(C)cc1NC(=O)Cn1ncc2c3ccccc3n(Cc3ccccc3)c2c1=O` was inactive: 86%.

For `CCc1ccc(CNC(=O)c2c(C)oc3ncn(CC(C)C)c(=O)c23)cc1`, the survival was inactive: 79%.
